The values below come from ChEMBL document CHEMBL4888484, “Replenishing the malaria drug discovery pipeline: Screening and hit evaluation of the MMV Hit Generation Library 1 (HGL1) against asexual blood stage Plasmodium falciparum ,using a nano luciferase reporter read-out” (2022).

About 540 (0.36%) of roughly 150,000 compounds showed an effect of 50% or more. Some of the results follow.

This assay deals with Plasmodium falciparum. The assay can be described thus: Primary screen in NF54 nanoGlo assay, in single point, at 2uM, 72h; a lower Z score goes with more inhibition. The format is functional, Erythrocyte. The note with it: timepoint 72 hour.
Usually % Inhibition stands for the drop in the measured response relative to a control, in per cent. Take `CCc1nccn1C[C@H](C)NCc1noc(C(N)=O)n1`: the “% Inhibition” value was -8% and the Z score is reported as 1.6.
Consider `c1ccc2c(c1)C1CCC2N1CCCN1CCOCC1`, for which the “% Inhibition” value is -5% and the Z score amounted to 0.43.
On the same counts, the results for `Cc1ncsc1CN[C@@H](C)Cc1ccccn1` are -17% and 2.16.
For `C[C@@H](Cc1ccco1)N1CCC(C#N)CC1`, the “% Inhibition” value is reported as -18% and the Z score is 2.32.
In the same order, the values of `CC(C)N1C2CCC1CN(Cc1ccncc1)CC2` (configuration not stated) are -11% and 1.53.
`O=c1[nH]c2ccc(S(=O)(=O)Nc3ccc4c(c3)OC3(CCCCC3)O4)cc2o1`: the “% Inhibition” value is listed as -7% and the Z score amounted to 1.29.
On to `O=C(c1cc2c(s1)CCCCCC2)N1CCC2(CC1)OCCO2`, for which the “% Inhibition” value was determined as 8% and the Z score was -0.96.
In the same order, the values of `CN1CCN(C(=O)Cc2ccc3c(c2)OCO3)C[C@]12CCNC(=O)CC2` are -10% and 1.68.
On the same counts, the results for `CC[C@@H](Cc1ccccc1)N(C)Cc1nc(N)nc(N(C)C)n1` are 30% and -3.45.
As for `Cc1ccc([C@H]2CN(C(=O)c3[nH]cnc3C)[C@@H]3C4CCN(CC4)[C@H]23)cc1`, the “% Inhibition” value is reported as -1% and the Z score was determined as 0.11.
In the same order, the values of `Cc1ccc(OCC(=O)N2CCN(C3CCC(c4ccccc4)CC3)CC2)cc1` (configuration not stated) are 26% and -3.
In the same order, the values of `Cc1ccc(-c2cn(CC(=O)NCc3ccccc3C)c(=O)o2)cc1` are -15% and 1.52.
In the same order, the values of `O=C(Cc1cnc2ccccn12)N1C[C@H]2CC[C@@H](C1)N(Cc1ccccn1)C2` are 34% and -1.8.
For `COc1ccc2c(N3CCC(C(=O)N4CCC5(CC4)OCCO5)CC3)c(C#N)cnc2c1`, the “% Inhibition” value is given as 4% and the Z score was -0.69.
`FCC1CCN(Cc2cncs2)CC1`: the “% Inhibition” value was -11% and the Z score is reported as 1.26.
`FC1(F)C[C@@H](COc2cccnc2)N(C2CCCCC2)C1`: the “% Inhibition” value came to 24% and the Z score is -4.05.
Take `O=c1nc(CCNS(=O)(=O)C2CC2)[nH]o1`: the “% Inhibition” value is 10% and the Z score is listed as -1.84.
Consider `CN1CC[C@@]2(CCC1=O)CN(c1ncnc3ccsc13)CCN2C`, for which the “% Inhibition” value worked out at 6% and the Z score is -1.05.
In the same order, the values of `C[C@]12CC[C@H](O)C[C@@H]1CC[C@@H]1[C@@H]2CC[C@@]2(C)[C@H]1CC[C@]2(O)C#N` are -7% and 0.96.
With `Cc1ncccc1OC[C@H]1CCCN1C(=O)c1cccc2[nH]c(=O)oc12`, the “% Inhibition” value was -10% and the Z score is on record as 1.03.
On the same counts, the results for `CN(C)c1nc2cc(F)ccc2cc1CNCCc1ccccc1` are -7% and 1.27.
On the same counts, the results for `NC(=O)OCCNC(=O)Oc1ccc(Cl)cc1Cl` are 5% and -0.62.
As for `Cc1cc(N2CC3OCCN(Cc4ccccc4)C3C2)nc(C)n1` (configuration not stated), the “% Inhibition” value is given as -18% and the Z score stood at 2.78.
In the same order, the values of `CN1C[C@@H]2CCCN(S(=O)(=O)c3cncc(F)c3)[C@@H]2C1` are -6% and 1.15.
In the same order, the values of `CC(Cc1ccccc1Br)NC[C@@H](C)O` (some centres not stated) are -16% and 1.74.
Consider `COc1cc(CC(=O)N(C)CCN(C)C2CC2)ccc1O`, for which the “% Inhibition” value was -8% and the Z score was 1.33.
`Cn1c(=O)oc2ccc(S(=O)(=O)NC[C@](C)(O)c3ccc(-c4ccccc4)cc3)cc21`: the “% Inhibition” value is listed as -3% and the Z score was found to be 0.59.
In the same order, the values of `COc1ccc(CNC(=O)C(Cl)(Cl)Cl)cc1` are -10% and 1.43.
For the molecule `Cc1nc(N2CCC3CCC(C2)N3C)ccc1Br` (configuration not stated), the “% Inhibition” value is reported as -2% and the Z score came out at 0.33.
On the same counts, the results for `Cc1ccc(N2C(=O)NC(=O)[C@@]3(Cc4cc(C)ccc4N(C)C3)C2=O)c(C)c1` are 26% and -3.25.
In the same order, the values of `Cc1ccc2c(c1)C[C@]1(CN2C)C(=O)N(c2ccc(Br)cc2)C(=O)N=C1O` are -11% and 1.22.
On the same counts, the results for `O=C(c1ccc(=O)[nH]n1)N1C2CCC1c1ccccc12` are 16% and -2.05.
Regarding `Cc1cc(NCCc2c[nH]c(=O)[nH]c2=O)n2nccc2n1`, the “% Inhibition” value was -11% and the Z score amounted to 1.27.
On the same counts, the results for `O=C(CN1CCCC1=O)NCc1ccco1` are -14% and 2.17.
In the same order, the values of `COc1ccc(CCC(=O)N2CC[C@@]3(C2)C(=O)N(C)c2ccc(OC)cc23)cc1` are -3% and 0.38.
With `CCC[C@@H](C#N)NS(=O)(=O)c1ccc(S(=O)(=O)F)cc1`, the “% Inhibition” value is given as 0% and the Z score was determined as 0.
As to `O=c1[nH]c2cc(N3CCNCC3)ccc2o1`, the “% Inhibition” value was -18% and the Z score is 2.2.
In the same order, the values of `Cc1nc(CC(=O)N2CC(N3CCCC[C@@H]3C)C2)cs1` are -3% and 0.53.
Turning to `C[C@H](N)Cc1ccc(C(F)(F)F)cc1`, the “% Inhibition” value turned out to be 6% and the Z score is on record as -0.89.
On the same counts, the results for `COc1cccc([C@H]2CN(c3cc(C#N)ccn3)[C@@H]3C4CCN(CC4)[C@H]23)c1` are -16% and 3.07.
Consider `O=C(Cc1ccc(O)c(F)c1)N1C[C@@H]2CC[C@H]1CN(Cc1ccccn1)C2`, for which the “% Inhibition” value is recorded as 2% and the Z score is -0.32.
For `COc1cccc(C[C@H](C)NC2CCN(C(=O)Nc3ccccc3)CC2)c1`, the “% Inhibition” value is on record as -12% and the Z score was found to be 1.54.
On the same counts, the results for `CC(C)=CCN1C[C@@H]2CC[C@H]1CN(C(=O)c1cnc(C)[nH]c1=O)C2` are -11% and 1.09.
In the same order, the values of `CO[C@H]1[C@@H]2CC[C@H]1CN(Cc1ccc3cc(Cl)ccc3n1)C2` are -3% and 0.44.
In the same order, the values of `CC(Cc1ccc(F)cc1)NC(C)CN1CCN(C)CC1` (configuration not stated) are 5% and -0.66.
Consider `O=C1N[C@](c2ccccc2)(C(F)(F)F)c2ccc3ccccc3c2O1`, for which the “% Inhibition” value was determined as 35% and the Z score was -1.33.
In the same order, the values of `Cc1cncc(CN2CCC(CF)CC2)c1` are -12% and 1.15.
Turning to `COc1ccccc1NC(=O)N1C[C@@H]2C[C@H](C1)c1ccc(-c3cncnc3)c(=O)n1C2`, the “% Inhibition” value was determined as 15% and the Z score is on record as -1.79.
In the same order, the values of `Cn1nc(-c2cccc3c2CCNC3)c2c(Cl)cccc21` are -15% and 1.37.
Regarding `O=C(N[C@@H](C1CCCC1)C(F)(F)F)c1ccc2oc(=O)[nH]c2c1`, the “% Inhibition” value was -5% and the Z score came to 0.6.
Turning to `O=c1oc2ccccc2n1-c1nc2ccccc2s1`, the “% Inhibition” value is listed as -29% and the Z score turned out to be 3.42.
On the same counts, the results for `CC(C)(C)OC(=O)C1CC2CCC1N2Cc1cscn1` (configuration not stated) are -7% and 0.95.
For the molecule `COc1ccc2nc(CN3CC[C@H](O)CC34CCC4)[nH]c2n1`, the “% Inhibition” value is -9% and the Z score is on record as 1.39.
On the same counts, the results for `Cc1ccc(N2C[C@H](c3ccccc3)[C@@H]3[C@H]2C2CCN3CC2)nn1` are -12% and 1.18.
In the same order, the values of `O=S(=O)(NC12CCCC1CNC2)c1onc(C2CC2)c1Cl` (configuration not stated) are 94% and -8.97.
On the same counts, the results for `CC(C)(NCn1c(=O)oc2cc(Br)ccc21)c1ccccc1` are -20% and 3.72.
Take `Cc1ccc(C(=O)N[C@H]2COC[C@@H]2N2CCN(C)CC2)cn1`: the “% Inhibition” value is on record as -6% and the Z score worked out at 1.08.
In the same order, the values of `CC(C)c1noc([C@H](C)Nc2ccc3oc(=O)[nH]c3c2)n1` are -1% and 0.09.
Take `O=C(NCC#CCN1CCCCCC1)C1CCC1`: the “% Inhibition” value is given as -11% and the Z score was 1.61.
Regarding `COCC(O)CNC(Cc1ccccc1C)c1ccco1` (configuration not stated), the “% Inhibition” value turned out to be 0% and the Z score is listed as 0.06.
On to `C[C@H]1CC2(CCN(C(=O)OC(C)(C)C)CC2)CN1`, for which the “% Inhibition” value is listed as -6% and the Z score is 0.9.
Take `C[C@H](NC(=O)c1cccc2oc(=O)[nH]c12)c1ccc2c(c1)OCCO2`: the “% Inhibition” value is -8% and the Z score was found to be 1.02.
On the same counts, the results for `CC(C)[C@H]1C=CCN1C(=O)c1ccc(CCN)cc1` are -10% and 1.3.
Regarding `COc1ccc(N2C(=O)NC(=O)C3(Cc4ccccc4N4CCC(c5ccccc5)CC43)C2=O)cc1` (configuration not stated), the “% Inhibition” value was -10% and the Z score came out at 1.43.
As to `Clc1cnn(CCN2CCC3(CCCC3)C2)c1`, the “% Inhibition” value was -1% and the Z score turned out to be 0.23.
In the same order, the values of `c1ccc(C[C@@H]2COC3(CCNCC3)C2)cc1` are -2% and 0.3.
On the same counts, the results for `CC(C)CNC1(c2nn[nH]n2)CCCC1` are 2% and -0.29.
In the same order, the values of `CCCN1C[C@@H]2CC[C@H]1CN(C(=O)Cc1cccc(OC)c1)C2` are 3% and -0.64.
On to `Cc1ccc(N2CCN3CCNC(=O)[C@@H]3C2)nn1`, for which the “% Inhibition” value is -7% and the Z score was determined as 0.86.
In the case of `CCOC(C)c1nc(CC(=O)N2CC(C)C(N(C)C)C2)cs1` (configuration not stated), the “% Inhibition” value is -13% and the Z score was 1.94.
With `COc1ccc2c(c1)[C@@]1(CCN(C(=O)C3CCCC3)C1)C(=O)N2C`, the “% Inhibition” value turned out to be 0% and the Z score is 0.04.
For the molecule `CCCCN(C(=O)Oc1ccccc1)[C@H]1CCS(=O)(=O)C1`, the “% Inhibition” value was -7% and the Z score is given as 0.64.
In the same order, the values of `C[S+](C)c1c([O-])[nH]c(=O)n(-c2ccccc2F)c1=O` are -21% and 2.84.
In the same order, the values of `O=C(N[C@H]1CC[C@@H](CS(=O)(=O)F)C1)c1cccs1` are -6% and 0.7.
In the same order, the values of `CC1(CO)CCCC1NC1CCCCC1` (configuration not stated) are -6% and 0.56.
`Brc1cncc(-c2noc(C34CCCN(CCC3)C4)n2)c1`: the “% Inhibition” value is reported as 2% and the Z score is -0.25.
In the same order, the values of `COc1ccc(CCN2C(=O)N=C(O)C3(Cc4cccc(F)c4N4CCCC43)C2=O)cc1OC` (configuration not stated) are -1% and 0.07.
In the same order, the values of `CN1CCN2c3cccc(Cl)c3CC3(C(=O)NC(=O)N(c4ccc(F)cc4)C3=O)C2C1` (configuration not stated) are 4% and -0.49.
Take `Cc1nc(CC(=O)N2CCN3CCC2C3)c(C)s1` (configuration not stated): the “% Inhibition” value was -13% and the Z score is on record as 2.25.
For the molecule `Cc1nc(C)c(F)c(N2CCC[C@H]2c2cccnc2)n1`, the “% Inhibition” value is recorded as -2% and the Z score was determined as 0.36.
For `CN1CC[C@H]2CCN(c3nc4ccccc4o3)[C@H]2C1`, the “% Inhibition” value is 4% and the Z score is listed as -0.43.
On the same counts, the results for `CC(C)CC(=O)N1CC[C@@H]2COCCN(C)[C@@H]2C1` are -5% and 0.65.
On to `Cc1cccnc1[C@H](C)NC[C@]1(O)CCCN2CCCC[C@@H]21`, for which the “% Inhibition” value came to 9% and the Z score is -1.18.
On the same counts, the results for `O=C(CNc1cccc(Oc2ccccc2)c1)N1CCC2(CC1)OCCO2` are -2% and 0.41.
On the same counts, the results for `Cc1ccc(-c2cn(CC(=O)NCc3ccccc3C(F)(F)F)c(=O)o2)cc1` are -23% and 2.34.
On the same counts, the results for `CCOC[C@@H]1CC(F)(F)CN1C1CN(C(=O)Cc2cccc(F)c2)C1` are -4% and 0.64.
